{"source": "PubChem BioAssay (NCI)", "test_system": "NCI-H322M lung", "assay": "DTP human tumour cell line panel, 48 h", "note": "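Cells were grown in 96-well plates and exposed to each compound for 48 hours at five concentrations; endpoints were interpolated linearly between bracketing concentrations, or set to the highest concentration if not reached. The concentration for 50% growth inhibition is given as GI50. TGI is the concentration that stops growth completely.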", "data": [{"compound": "CC1(c2ccccc2)NC(=O)N(CC(=O)Nc2ccc(C(=O)/C=C/c3ccc(Cl)cc3)cc2)C1=O", "note": "(configuration not stated)", "values": [{"measurement": "GI50", "value": 17.4, "unit": "µM"}, {"measurement": "TGI", "value": 51.9, "unit": "µM"}]}]}
